Tests used:
LP-1 = experiment: ADC cytotoxicity, Cell Titer Glo, 96 hours; assay type: cell-based; conditions: LP-1 (0 NTB-A receptors/cell)
Protocol: (§1) Humanized antibodies (HDLD) were tested as PBD and auristatin antibody drug conjugates. The antimitotic agent monomethyl auristatin E (MMAE) was conjugated to anti-NTB-A mAbs via a cathepsin-cleavable valine-citrulline (vc) linker. A second auristatin, Auristatin-2 was conjugated to anti-NTB-A mAbs via a peptide linker. For the PBD conjugates, the drug-linker SGD-1910 was conjugated to the anti-NTBA antibody via a thiol group of a cysteine residue introduced at position 239 of the IgG1 chain of the antibody (numbering according to the EU Index) and the average drug load was about 2 drugs per antibody. Antibodies with cysteine at the 239 position carry the designation ec. Preparation was as described in WO2011/130613 using the anti-NTBA antibodies described herein. The ADCs were serially diluted 3-fold in media to produce a 10 point dose curve (1,000 ng/mL-0.05081 ng/mL) and applied to multiple myeloma cells cultured in 96-well assay plates. The cell lines were treated with anti-NTB-A ADCs in quadruplicate and incubated for 96 hours at 37° C., 5% CO2. Cells were assayed for viability using the Cell Titer Glo luminescent cytotoxicity assay (Promega), and data collected using an EnVision plate reader (Perkin Elmer). Dose effect curves and IC50 values were calculated using GraphPad Prism software.

MM.1R = experiment: ADC cytotoxicity, Cell Titer Glo, 96 hours; assay type: cell-based; conditions: MM.1R (21000 NTB-A receptors/cell)
Protocol: as §1

CA46 = experiment: ADC cytotoxicity, Cell Titer Glo, 96 hours; assay type: cell-based; conditions: CA46 (15,000 NTB-A receptors/cell)
Protocol: as §1

HEL92.1.7 = experiment: ADC cytotoxicity, Cell Titer Glo, 96 hours; assay type: cell-based; conditions: HEL92.1.7 (10200 NTB-A receptors/cell)
Protocol: as §1

EJM = experiment: ADC cytotoxicity, Cell Titer Glo, 96 hours; assay type: cell-based; conditions: EJM (9800 NTB-A receptors/cell)
Protocol: as §1

Ramos = experiment: ADC cytotoxicity, Cell Titer Glo, 96 hours; assay type: cell-based; conditions: Ramos (24500 NTB-A receptors/cell)
Protocol: as §1

HNT-34 = experiment: ADC cytotoxicity, Cell Titer Glo, 96 hours; assay type: cell-based; conditions: HNT-34 (57300 NTB-A receptors/cell)
Protocol: as §1

WIL2-S cell line = experiment: ADCC, chromium-51 release with NK effector cells; assay type: cell-based; conditions: NK effector to target 10:1, 4 hours
Protocol: Antibody-Dependent Cellular Cytotoxicity (ADCC) Activity Assay: ADCC cytotoxic activity was measured by chromium-51 release in which effector natural killer (NK) cells kill (lyse) target cells via binding to the antibody or ADC on the target cells. WIL2-S cells were labeled with chromium-51, bound with antibody (0.1 ng/mL-10 μg/mL), and then incubated with NK cells at an effector to target ratio of 10:1 for 4 hours at 37° C., 5% CO2. Supernatant was removed to a filter plate and chromium-51 counts were measured with a TopCount (Perkin Elmer, Waltham, Mass.). Data was expressed as a percentage of maximum specific cell lysis determined with a positive control of 1% TritonX-100-treated cells (Sigma, St. Louis, Mo.).

[1] = tested on: Raji non-Hodgkin lymphoma cells; experiment: Subcutaneous non-Hodgkin lymphoma xenograft, Raji in SCID mice; assay type: in vivo; conditions: n=6
Protocol: SCID (C.B-17/Sz-Prkd^scid) mice were implanted with 5 million Raji non-Hodgkin lymphoma cells per animal subcutaneously. When mean tumor volume reached 100 mm^3, n=6 mice per treatment group were given a single intraperitoneal injection of h20F3ec-1910(2) PBD ADC or control hIgGec-1910(2) PBD ADC. PBD ADC dose levels examined were 100 ug/kg, 50 ug/kg, and 25 ug/kg. Individual mice were sacrificed when subcutaneous Raji tumor volume reached 1,000 mm^3.

MM.1R cells = experiment: Disseminated multiple myeloma xenograft, MM.1R in NSG mice; assay type: in vivo
Protocol: (§2) NSG (NOD scid gamma; NOD.Cg-Prkdc^scid Il2rg^tmlWjl/SzJ) mice were implanted with 1 million MM.1R cells, per animal intravenously to generate a disseminated model of multiple myeloma. Five days after tumor cell implant, n=10 mice per treatment group were given a single intraperitoneal injection of h20F3ec-1910(2) PBD ADC or non-binding control hIgGec-1910(2) PBD ADC. PBD ADC dose levels examined were 333 μg/kg, 111 Ig/kg, and 37 μg/kg. Mice with advanced tumor burden were sacrificed upon showing symptoms of hind limb paralysis, cranial swelling, and/or moribundity.
NSG (NOD scid gamma; NOD.Cg-Prkdc^scid Il2rg^tm1Wjl/SzJ) mice were implanted with 1 million MM.1R cells per animal intravenously to generate a disseminated model of multiple myeloma. Five days after tumor cell implant, n=10 mice per treatment group were given a single intraperitoneal injection of h20F3-Auristatin2(8) ADC or non-binding control hIgG-Auristatin2(8) ADC. Auristatin2 ADC dose levels examined were 3.0 mg/kg and 1.0 mg/kg. Mice with advanced tumor burden were sacrificed upon showing symptoms of hind limb paralysis, cranial swelling, and/or moribundity.

U-266 cells = experiment: Disseminated multiple myeloma xenograft, U-266 in NSG mice; assay type: in vivo; conditions: 111 Ig/kg (single dose), intraperitoneal; n=10
Protocol: as §2, with “NOD.Cg-Prkdc^scid Il2rg^tm1Wjl/SzJ)” for “NOD.Cg-Prkdc^scid Il2rg^tmlWjl/SzJ)”, “with 5” for “with 1”, “million U-266 cells” for “million MM.1R cells,”, “were” for “were 333 μg/kg,”, “Ig/kg, 56 μg/kg,” for “Ig/kg,”, “and 28” for “and 37”
NSG (NOD scid gamma; NOD.Cg-Prkdc^scid Il2rg^tm1Wjl/SzJ) mice were implanted with 5 million U-266 cells per animal intravenously to generate a disseminated model of multiple myeloma. Five days after tumor cell implant, n=10 mice per treatment group were given a single intraperitoneal injection of either anti-NTB-A ADCs h20F3-vcMMAE(4), h20F3-Auristatin2(8), or non-binding control ADCs hIgG-vcMMAE(4) and hIgG-Auristatin2(8). ADC dose levels examined were 3.0 mg/kg, and 1.0 mg/kg. Mice with advanced tumor burden were sacrificed upon showing symptoms of hind limb paralysis, cranial swelling, and/or moribundity. […] The h20F3-Auristatin2(8) ADC produced 10/10 durable complete responses at both the 1.0 mg/kg and 3.0 mg/kg dose levels. […]

B1: h20F3ec-1910(2) (conjugate)
heavy: QIQLVQSGSELKKPGASVKVSCKASGYTFTNYGMNWVRQAPGQDLKWMGWINTYSGEPRYADDFKGRFVFSLDKSVNTAYLQISSLKAEDTAVYYCARDYGRWYFDVWGQGTTVTVSS[sequence of human IgG1 constant region with changes omitted]
light: QIVLSQSPATLSLSPGERATMSCRASSSVSHMHWYQQKPGQAPRPWIYATSNLASGVPARFSGSGSGTDYTLTISSLEPEDFAVYYCQQWSSTPRTFGGGTKVEIKRTVAAPSVFIFPPSDEQLKSGTASVVCLLNNFYPREAKVQWKVDNALQSGNSQESVTEQDSKDSTYSLSSTLTLSKADYEKHKVYACEVTHQGLSSPVTKSFNRGEC
- IC50 (LP-1): >1000 ng/mL
- IC50 (MM.1R): 1 ng/mL
- IC50 (CA46): 0.9 ng/mL
- IC50 (HEL92.1.7): 2 ng/mL
- IC50 (EJM): >1000 ng/mL
- IC50 (Ramos): 0.8 ng/mL
- IC50 (HNT-34): 0.5 ng/mL
- ADCC Maximum % Specific Cell Lysis (WIL2-S cell line): 16 ± 3.3%
- tumor growth ([1]; 25 ug/kg single ip dose): tumor growth delay
- durable complete responses ([1]; 50 ug/kg single ip dose): 4/6
- durable complete responses ([1]; 100 ug/kg single ip dose): all mice
- difference versus control group (Mantel-Cox test) (MM.1R cells; 37 μg/kg versus control hIgGec-1910(2) ADC (333 μg/kg), P<0.0001): statistically significant difference
- durable complete responses (MM.1R cells; all dose levels (333, 111, 37 μg/kg), single intraperitoneal dose, n=10): 10/10
- durable complete responses (U-266 cells): 9/10
